Measurements taken from article PMC4336329 (PLoS ONE, 2015).
Screen size: about 310,000 compounds; about 2,200 (0.71%) showed an effect of 50% or more. Effects have a minus sign here. The list shows a part of the results.

The compounds below were run against human ether-à-go-go-related gene (hERG) potassium channel (human, UniProt Q12809) (assay: primary screen, population patch clamp on CHO cells stably expressing hERG).
Chain of human ether-à-go-go-related gene (hERG) potassium channel (Q12809 whole entry, looked up): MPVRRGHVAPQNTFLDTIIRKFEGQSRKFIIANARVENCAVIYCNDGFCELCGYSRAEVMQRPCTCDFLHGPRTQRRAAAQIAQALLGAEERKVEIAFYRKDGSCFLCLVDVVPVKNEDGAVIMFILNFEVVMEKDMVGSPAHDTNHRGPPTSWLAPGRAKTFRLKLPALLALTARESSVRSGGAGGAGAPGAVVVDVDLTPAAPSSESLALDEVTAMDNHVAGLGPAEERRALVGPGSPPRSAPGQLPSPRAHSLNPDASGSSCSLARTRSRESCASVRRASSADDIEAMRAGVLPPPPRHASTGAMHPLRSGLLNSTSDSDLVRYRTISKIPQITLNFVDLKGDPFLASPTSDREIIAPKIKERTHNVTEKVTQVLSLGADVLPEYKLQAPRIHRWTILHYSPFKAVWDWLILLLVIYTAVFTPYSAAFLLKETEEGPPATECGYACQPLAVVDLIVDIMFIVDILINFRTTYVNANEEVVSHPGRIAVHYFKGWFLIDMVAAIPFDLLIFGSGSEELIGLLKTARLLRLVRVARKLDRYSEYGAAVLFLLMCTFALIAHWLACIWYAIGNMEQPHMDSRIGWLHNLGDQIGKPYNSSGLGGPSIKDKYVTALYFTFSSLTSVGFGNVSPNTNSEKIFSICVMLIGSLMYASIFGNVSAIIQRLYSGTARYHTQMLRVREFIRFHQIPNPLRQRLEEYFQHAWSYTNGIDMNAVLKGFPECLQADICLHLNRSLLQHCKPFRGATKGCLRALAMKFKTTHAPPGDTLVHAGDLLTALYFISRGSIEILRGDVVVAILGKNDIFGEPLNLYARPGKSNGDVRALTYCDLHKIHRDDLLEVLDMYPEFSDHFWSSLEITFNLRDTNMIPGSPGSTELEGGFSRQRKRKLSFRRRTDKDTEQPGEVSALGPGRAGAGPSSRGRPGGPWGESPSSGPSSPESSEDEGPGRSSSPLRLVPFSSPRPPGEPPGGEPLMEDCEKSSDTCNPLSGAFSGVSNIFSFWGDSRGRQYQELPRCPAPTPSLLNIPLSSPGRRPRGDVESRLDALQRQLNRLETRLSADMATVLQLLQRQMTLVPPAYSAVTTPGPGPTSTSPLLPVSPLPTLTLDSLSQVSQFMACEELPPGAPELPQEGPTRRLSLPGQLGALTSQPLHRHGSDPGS

| Compound | hERG current change (%, negative = inhibition) at 1uM [%] |
| --- | --- |
| COCCOC(=O)c1c(C)oc2ccc(OC(=O)N(C)C)cc12 | 10.4 |
| CCOc1ccc(N(CC(=O)Nc2ccccc2OCC)S(=O)(=O)c2c(C)noc2C)cc1 | 15 |
| CCOc1ccc(NS(=O)(=O)c2cc3c4c(c2)CCN4C(=O)CC3)cc1 | 4.56 |
| Cc1nc2ncnn2c(C)c1Cc1ccc(Cl)cc1F | 9.45 |
| N#Cc1cnn2c1nc(N1CCCCC1)c1ccccc12 | 7.55 |
| CC(=O)N1CCN(c2ccc(NCc3ccc(F)cc3)cc2)CC1 | 11.5 |
| COc1ccc(C2=NCC(=S)Nc3ccc(Cl)cc32)cc1Cl | 0.867 |
| O=C(CN1CCCCC1)Nc1nc(-c2ccccc2)cs1 | 7.21 |
| CCN(CC)CCNC(=O)c1ccc(NC(=O)c2cc(-c3ccco3)nc3ccccc23)cc1 | 9.15 |
| O=C(c1cc(COc2ccc(F)cc2F)on1)N1CCN(C2CCCC2)C(=O)C1 | -1.86 |
| CCOc1ccc(NC(=O)CN(c2ccc(C)cc2)S(=O)(=O)c2c(C)nn(C)c2C)cc1 | 8.67 |
| COc1ccc(NC(=O)CCC(=O)c2cccs2)cc1Cl | 15.4 |
| O=C(CCNC(=O)c1ccc(Cl)cc1)NCC(c1ccco1)N1CCCCC1 (stereo not drawn) | -10.6 |
| COc1ccc(C2=NN(c3ccccc3)C(c3cccs3)C2)cc1 (stereo not drawn) | 7.59 |
| Nc1c(C(=O)NCc2ccccc2)c2nc3ccccc3nc2n1CCCN1CCOCC1 | 0.733 |
| CCCCc1nc(Cl)c(C#N)c2c1CCC2 | 9.36 |
| O=C(Nc1ccc(F)cc1)c1cc(S(=O)(=O)Nc2ccc(F)cc2)cs1 | -0.55 |
| COC(=O)c1ccc(C23CC4(C2)[C@H](CN(Cc2ccc(-c5ccccc5)cc2)[C@@H]4c2ccccc2)C3c2ccccc2)cc1 (stereo partly drawn) | 14.3 |
| Cc1ccc(CNC(=O)c2ccc(N(C)S(=O)(=O)c3ccccc3)cc2)cc1 | 6.26 |
| COC(=O)[C@@H](NC(=O)NCc1ccccc1F)C(C)C | 14.3 |
| Cc1cc(C)c(C#N)c(N2CCN(c3ccc(F)cc3)CC2)n1 | 14.2 |
| Nc1c(C(=O)c2ccco2)oc2ccccc12 | 9.01 |
| COc1ccc(CNC(=O)C2CCC(CNS(=O)(=O)c3cccc4nsnc34)CC2)cc1 (stereo not drawn) | 14.6 |
| Cc1ccc2c(c1)cc(CN(C(=O)N1CCOCC1)C1CCCC1)c1nnnn12 | 12.5 |
